One may read the IC50 as the point on the concentration scale where inhibition reaches its midpoint.

Lines with a small IC50 respond at low doses; a fit beyond the top or the lowest dose is shown as a bound at that dose. The AUC spans the tested range (256-fold, ending at the top dose) of the same fit; it is 1 without any effect and falls as sensitivity rises. Where the top dose is marked as inferred, it was calculated from the reported fits.

Compound in the test: N.N.[Cl][Pt][Cl] [Cisplatin]
The experiment in a line: Viability of human cancer cell lines after 72 h of drug (GDSC screen). The following applies: top dose inferred. Here is the method:
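Human cancer cell lines in 384-well plates, medium with 10% serum, drug for 72 h over a 256-fold dose range (nine 2-fold or five 4-fold steps up to the top dose). Adherent lines were fixed and stained with the nucleic acid dye Syto60, suspension lines read with resazurin; signal relative to control wells, capped at 0 and 100%. One two-parameter sigmoid per drug and line, fitted in a mixed model over all curves with the slope shared within a line.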
Turning to “NKM-1 (acute myeloid leukaemia, suspension, top dose 10 µM)”, the AUC is 0.755 and the IC50 is 3.49 µM.
Take “NMC-G1 (glioma, adherent, top dose 10 µM)”: the AUC was 0.843 and the IC50 is 9.57 µM.
In the case of “NOMO-1 (acute myeloid leukaemia, suspension, top dose 10 µM)”, the AUC was 0.862 and the half-maximal inhibitory concentration (IC50) was greater than 10 µM.
As to “NOS-1 (osteosarcoma, adherent, top dose 10 µM)”, the AUC amounted to 0.959 and the IC50 is greater than 10 µM.
In the case of “NTERA-2 cl.D1 (testis, adherent, top dose 10 µM)”, the AUC was determined as 0.565 and the IC50 amounted to 0.941 µM.
The like results for “NU-DUL-1 (B-cell lymphoma, suspension, top dose 10 µM)” were, in that order, 0.747 and 2.67 µM.
Turning to “NUGC-4 (stomach, adherent, top dose 10 µM)”, the AUC worked out at 0.959 and the IC50 is greater than 10 µM.
On to “NY (osteosarcoma, adherent, top dose 10 µM)”, for which the AUC was determined as 0.848 and the IC50 stood at 7.3 µM.
In the case of “OACM5-1 (oesophagus, semi-adherent, top dose 10 µM)”, the AUC is 0.923 and the IC50 is greater than 10 µM.
For the cell line “OACp4C (oesophagus, adherent, top dose 10 µM)”, the AUC came out at 0.846 and the IC50 was determined as 9.58 µM.
In the case of “OAW-42 (ovary, adherent, top dose 10 µM)”, the AUC worked out at 0.859 and the IC50 was found to be 9.47 µM.
Consider “OC-314 (ovary, adherent, top dose 10 µM)”, for which the AUC stood at 0.873 and the IC50 was 7.3 µM.
Regarding “OCI-AML2 (acute myeloid leukaemia, suspension, top dose 10 µM)”, the AUC came out at 0.746 and the IC50 worked out at 2.52 µM.
The like results for “OCI-AML3 (acute myeloid leukaemia, suspension, top dose 10 µM)” were, in that order, 0.924 and greater than 10 µM.
“OCI-AML5 (acute myeloid leukaemia, suspension, top dose 10 µM)”: the AUC is 0.845 and the IC50 worked out at 6.33 µM.
The like results for “OCI-LY7 (B-cell lymphoma, suspension, top dose 10 µM)” were, in that order, 0.984 and greater than 10 µM.
As to “OCI-LY-19 (B-cell lymphoma, suspension, top dose 10 µM)”, the AUC is 0.768 and the IC50 worked out at 3.46 µM.
The like results for “OCI-M1 (acute myeloid leukaemia, suspension, top dose 10 µM)” were, in that order, 0.936 and greater than 10 µM.
“OCUB-M (breast, adherent, top dose 10 µM)”: the AUC was 0.987 and the IC50 is greater than 10 µM.
As for “OCUM-1 (stomach, adherent, top dose 10 µM)”, the AUC turned out to be 0.933 and the IC50 is greater than 10 µM.
As for “OE19 (oesophagus, adherent, top dose 10 µM)”, the AUC turned out to be 0.936 and the 50% inhibitory concentration (IC50) is greater than 10 µM.
On the same counts, the results for “OE21 (oesophagus, adherent, top dose 10 µM)” are 0.918 and greater than 10 µM.
On the same counts, the results for “OE33 (oesophagus, adherent, top dose 10 µM)” are 0.905 and greater than 10 µM.
The like results for “OMC-1 (cervix, adherent, top dose 10 µM)” were, in that order, 0.886 and greater than 10 µM.
As for “ONS-76 (medulloblastoma, adherent, top dose 10 µM)”, the AUC came to 0.729 and the IC50 was found to be 2.96 µM.
The like results for “OPM-2 (myeloma, suspension, top dose 10 µM)” were, in that order, 0.992 and greater than 10 µM.
For the cell line “OS-RC-2 (kidney, adherent, top dose 10 µM)”, the AUC was 0.726 and the IC50 amounted to 3.73 µM.
For the cell line “OSC-20 (head and neck, adherent, top dose 10 µM)”, the AUC was 0.963 and the IC50 is greater than 10 µM.
On the same counts, the results for OV-7 (ovary, adherent, top dose 10 µM) are 0.891 and greater than 10 µM.
“OV-17R (ovary, adherent, top dose 10 µM)”: the AUC came to 0.941 and the IC50 was greater than 10 µM.
On the same counts, the results for OV-56 (ovary, adherent, top dose 10 µM) are 0.702 and 2.26 µM.
The like results for OV-90 (ovary, adherent, top dose 10 µM) were, in that order, 0.936 and greater than 10 µM.
Turning to “OVCA420 (ovary, adherent, top dose 10 µM)”, the AUC was 0.964 and the IC50 was greater than 10 µM.
As for “OVCA433 (ovary, adherent, top dose 10 µM)”, the AUC came to 0.934 and the IC50 is greater than 10 µM.
Regarding “OVCAR-4 (ovary, adherent, top dose 10 µM)”, the AUC stood at 0.874 and the IC50 was greater than 10 µM.
Consider “OVCAR-5 (ovary, adherent, top dose 10 µM)”, for which the AUC turned out to be 0.744 and the IC50 was found to be 3.66 µM.
“OVCAR-8 (ovary, adherent, top dose 10 µM)”: the AUC was found to be 0.905 and the IC50 is greater than 10 µM.
As for OVISE (ovary, adherent, top dose 10 µM), the AUC was determined as 0.855 and the IC50 is greater than 10 µM.
For the cell line “OVK-18 (ovary, adherent, top dose 10 µM)”, the AUC was found to be 0.827 and the IC50 was 7 µM.
As for “OVKATE (ovary, adherent, top dose 10 µM)”, the AUC came to 0.957 and the IC50 is greater than 10 µM.
On the same counts, the results for OVMIU (ovary, adherent, top dose 10 µM) are 0.956 and greater than 10 µM.
“OVTOKO (ovary, adherent, top dose 10 µM)”: the AUC amounted to 0.759 and the IC50 amounted to 4.4 µM.
Take “P12-ICHIKAWA (T-cell lymphoblastic leukaemia, suspension, top dose 10 µM)”: the AUC came out at 0.914 and the IC50 was found to be 8.74 µM.
For “P30-OHK (lymphoblastic leukaemia, suspension, top dose 10 µM)”, the AUC was found to be 0.781 and the IC50 was 3.43 µM.
Turning to “P31-FUJ (acute myeloid leukaemia, suspension, top dose 10 µM)”, the AUC worked out at 0.988 and the IC50 is greater than 10 µM.
In the case of “P32-ISH (Burkitt lymphoma, suspension, top dose 10 µM)”, the AUC was found to be 0.851 and the IC50 was determined as 4.91 µM.
The like results for PA-1 (ovary, adherent, top dose 10 µM) were, in that order, 0.696 and 1.92 µM.
On the same counts, the results for “PA-TU-8902 (pancreas, adherent, top dose 10 µM)” are 0.928 and greater than 10 µM.
“PA-TU-8988T (pancreas, adherent, top dose 10 µM)”: the AUC came to 0.984 and the IC50 is greater than 10 µM.
“PANC-02-03 (pancreas, adherent, top dose 10 µM)”: the AUC worked out at 0.937 and the half-maximal inhibitory concentration (IC50) is greater than 10 µM.
Turning to “PANC-03-27 (pancreas, adherent, top dose 10 µM)”, the AUC was determined as 0.918 and the IC50 was greater than 10 µM.
Regarding “PANC-04-03 (pancreas, adherent, top dose 10 µM)”, the AUC was determined as 0.961 and the IC50 is greater than 10 µM.
In the case of “PANC-08-13 (pancreas, adherent, top dose 10 µM)”, the AUC was 0.864 and the IC50 was greater than 10 µM.
On the same counts, the results for “PC-3 [JPC-3] (lung adenocarcinoma, adherent, top dose 10 µM)” are 0.97 and greater than 10 µM.
On the same counts, the results for “PC-14 (lung adenocarcinoma, adherent, top dose 10 µM)” are 0.842 and 5.94 µM.
For “PCI-4B (head and neck, adherent, top dose 10 µM)”, the AUC was 0.768 and the IC50 was 3.55 µM.
For the cell line “PCI-6A (head and neck, adherent, top dose 10 µM)”, the AUC came out at 0.676 and the IC50 was determined as 1.91 µM.
As to “PCI-15A (head and neck, adherent, top dose 10 µM)”, the AUC was 0.987 and the IC50 is greater than 10 µM.
Consider “PCI-30 (head and neck, adherent, top dose 10 µM)”, for which the AUC is 0.863 and the IC50 is greater than 10 µM.
Turning to “PE/CA-PJ15 (head and neck, adherent, top dose 10 µM)”, the AUC amounted to 0.941 and the IC50 is greater than 10 µM.
As for PEO1 (ovary, adherent, top dose 10 µM), the AUC worked out at 0.865 and the IC50 came out at 9.41 µM.
For “PF-382 (T-cell lymphoblastic leukaemia, suspension, top dose 10 µM)”, the AUC amounted to 0.967 and the IC50 is greater than 10 µM.
On to “PFSK-1 (medulloblastoma, adherent, top dose 10 µM)”, for which the AUC was 0.813 and the IC50 was 5.8 µM.
Regarding “PL4 (pancreas, adherent, top dose 10 µM)”, the AUC was found to be 0.973 and the IC50 was greater than 10 µM.
Take “PL-21 (acute myeloid leukaemia, suspension, top dose 10 µM)”: the AUC turned out to be 0.983 and the IC50 was greater than 10 µM.
On to “PSN1 (pancreas, adherent, top dose 10 µM)”, for which the AUC turned out to be 0.676 and the IC50 amounted to 1.77 µM.
As for “PWR-1E (prostate, adherent, top dose 10 µM)”, the AUC worked out at 0.834 and the IC50 is 6.46 µM.
As for “QGP-1 (pancreas, adherent, top dose 10 µM)”, the AUC came out at 0.978 and the IC50 was greater than 10 µM.

Source of the values: the supplement of paper PMC4967469.
